About 1,400 (2%) of roughly 71,000 compounds were called active. Inconclusive results, whose numbers are uncertain, are shown with a selection of clear calls. The call rests on the fitted dose curve; in most records, active means well fitted curve in the direction sought with a large enough effect; inconclusive means small, poorly fitted or top-dose-only effect; inactive means no such curve, though single readings can be large or run the other way. A potency beside an inconclusive call is a rough fit, not a confirmed value.
target: Microtubule-associated protein tau (Homo sapiens) (UniProt P10636); assay: qHTS Assay for Tau Filament Binding; settings: recombinant tau filaments, thioflavin S fluorescence, 15 h, filaments grown with octadecylsulfate alongside compound; series mostly up to 57.1 µM;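 further: actives lower thioflavin S fluorescence by blocking filaments or displacing dye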
How it was run: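 His-tagged recombinant human tau (exons 2, 3, 10; 1 uM final) fibrillized with 30 uM sodium octadecylsulfate, 15 h at 37 C, in pH 7.4 HEPES buffer with 10 uM thioflavine S and 5 mM DTT. Reduced ThS fluorescence (450/510 nm) marks activity.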
On the % scale 0 is the no-effect control and ±100 the full control effect; potency means the concentration at half of the fitted maximal effect.

Sequence of UniProt P10636 (P10636 whole entry, looked up): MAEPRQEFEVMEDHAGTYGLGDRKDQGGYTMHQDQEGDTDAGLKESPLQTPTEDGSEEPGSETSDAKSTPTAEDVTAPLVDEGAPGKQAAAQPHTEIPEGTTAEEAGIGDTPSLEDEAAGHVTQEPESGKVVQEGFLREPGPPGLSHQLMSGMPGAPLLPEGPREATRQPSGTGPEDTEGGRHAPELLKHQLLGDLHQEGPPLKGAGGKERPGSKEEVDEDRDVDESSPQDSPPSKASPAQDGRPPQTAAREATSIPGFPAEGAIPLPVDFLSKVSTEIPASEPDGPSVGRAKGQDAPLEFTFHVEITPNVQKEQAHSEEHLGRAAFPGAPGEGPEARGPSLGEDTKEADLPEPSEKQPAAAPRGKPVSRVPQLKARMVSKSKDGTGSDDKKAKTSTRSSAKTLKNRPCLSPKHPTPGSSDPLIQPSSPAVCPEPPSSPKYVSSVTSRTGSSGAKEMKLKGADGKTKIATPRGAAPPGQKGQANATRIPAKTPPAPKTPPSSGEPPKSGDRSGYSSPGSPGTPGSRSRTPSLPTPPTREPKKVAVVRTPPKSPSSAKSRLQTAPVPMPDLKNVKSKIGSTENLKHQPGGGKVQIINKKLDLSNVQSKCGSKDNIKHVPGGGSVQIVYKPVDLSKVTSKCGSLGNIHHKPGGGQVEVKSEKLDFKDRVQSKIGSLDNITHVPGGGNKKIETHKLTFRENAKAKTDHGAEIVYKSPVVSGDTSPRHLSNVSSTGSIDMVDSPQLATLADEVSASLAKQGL

| Structure (SMILES) | Potency | activity change, negative = inhibition |
| --- | --- | --- |
| CC1(C)CC(=O)c2cc(C(=O)NC3CCSC3=O)c(=O)n(-c3ccccc3)c2C1 (configuration not stated) | inactive | – |
| CN1CCN(C2=C(Cl)C(=O)N(CCc3ccccc3)C2=O)CC1 | inconclusive: 25.1 µM [decreasing] | – |
| COCC(=O)N1CCC2(CC1)CN(c1ccc(-c3ccccc3)cc1)C2 | inconclusive: 25.1 µM [decreasing] | – |
| COC(=O)C1=C(C)N=c2s/c(=C/c3cccs3)c(=O)n2C1c1cccs1 (configuration not stated) | active: 1 µM | – |
| Cc1ccc(C2CC(=O)N3CN(c4ccc(Br)cc4)CSC3=C2C#N)o1 (configuration not stated) | inconclusive: 25.1 µM [decreasing] | – |
| Cc1oc(-c2ccc3c(c2)OCCO3)cc1C(=O)O | inactive | – |
| O=C(Nc1ccc2c(c1)OCO2)[C@@H]1[C@@H]2C(=O)N(C3CCCCC3)C(=O)[C@@H]2C2c3ccccc3C=CN21 (some centres not stated) | inconclusive: 31.6 µM [decreasing] | – |
| COc1ccc(NCc2cc3cc(OC)ccc3[nH]c2=O)cc1 | inconclusive: 31.6 µM [decreasing] | – |
| C=C[C@@]1(C)CC(=O)[C@@]2(O)[C@@]3(C)[C@@H](O)CCC(C)(C)[C@@H]3[C@H](O)[C@H](OC(C)=O)[C@@]2(C)O1 | inconclusive: 39.8 µM [decreasing] | – |
| Cc1ccc(C)n1-c1ccc(N2CCOCC2)nc1 | inconclusive: 12.6 µM [decreasing] | – |
| c1ccsc1 | inactive | – |
| Cc1c(=O)n(OCc2ccccc2F)c2ccccc2[n+]1[O-] | inconclusive: 25.1 µM [decreasing] | – |
| CCOC(=O)C1=C(C)NC(c2ccccc2)=C(C(=O)OCc2ccc([N+](=O)[O-])cc2)[C@@H]1C#Cc1ccccc1 | inconclusive: 6.31 µM [decreasing] | – |
| COC(=O)C1=C(C)NC(C)=C(C(=O)OCCSc2ccccc2)[C@@H]1C | inconclusive: 39.8 µM [decreasing] | – |
| O=C(Nc1cccc(Cl)c1)N1CCN(Cc2ccccc2)CC1 | inactive | – |
| Nc1cccc(C(=O)Nc2ccc(N)cc2Cl)c1 | inconclusive: 39.8 µM [decreasing] | – |
| Cc1ccc(S(=O)(=O)NC(=O)Nc2ncn[nH]2)cc1 | – | inactive: -2.4% [at 11.4 µM] |
| Clc1ccc(-c2nnc(N3CCCC3)nn2)cc1 | active: 12.6 µM | – |
| COCCn1c(=O)c(-c2cc(F)cc(F)c2)nc2cnc(Oc3ccc(OC)cc3)nc21 | active: 15.8 µM | – |
| Nc1ccc2nc3n(c(=O)c2c1)CCC3 | inconclusive: 25.1 µM [decreasing] | – |
| CCc1nnc2n1N=C(c1ccc(-c3ccc(Cl)cc3Cl)o1)CS2 | active: 25.1 µM | – |
| CC1Cc2ccccc2N1C(=O)C1CCCN(S(=O)(=O)c2cccc3nsnc23)C1 (configuration not stated) | inconclusive: 31.6 µM [decreasing] | – |

Source: PubChem BioAssay AID596 (National Center for Advancing Translational Sciences (NCATS), 2007)
